Out of some 260,000 compounds screened, about 150 (0.058%) were called active. The shares of active, inactive and inconclusive entries below differ from those in the screen. Calls follow the shape of the dose curve; as a rule, active = well fitted inhibition curve with a large enough effect; inconclusive = small, poorly fitted or top-dose-only effect; inactive = no such curve, though single readings can be large or run the other way. Potencies of inconclusive entries are left out as doubtful fits.
The compounds below were run against Pyruvate kinase PKM (Homo sapiens) (UniProt P14618) (assay: qHTS Assay for Inhibitors of Human Muscle isoform 2 Pyruvate Kinase). Settings: purified PKM2, ATP generation, Kinase-Glo luminescence; series mostly up to 57.5 µM; activity change, negative = inhibition: at the top concentration.
UniProt P14618, sequence (P14618 whole entry, looked up, canonical isoform): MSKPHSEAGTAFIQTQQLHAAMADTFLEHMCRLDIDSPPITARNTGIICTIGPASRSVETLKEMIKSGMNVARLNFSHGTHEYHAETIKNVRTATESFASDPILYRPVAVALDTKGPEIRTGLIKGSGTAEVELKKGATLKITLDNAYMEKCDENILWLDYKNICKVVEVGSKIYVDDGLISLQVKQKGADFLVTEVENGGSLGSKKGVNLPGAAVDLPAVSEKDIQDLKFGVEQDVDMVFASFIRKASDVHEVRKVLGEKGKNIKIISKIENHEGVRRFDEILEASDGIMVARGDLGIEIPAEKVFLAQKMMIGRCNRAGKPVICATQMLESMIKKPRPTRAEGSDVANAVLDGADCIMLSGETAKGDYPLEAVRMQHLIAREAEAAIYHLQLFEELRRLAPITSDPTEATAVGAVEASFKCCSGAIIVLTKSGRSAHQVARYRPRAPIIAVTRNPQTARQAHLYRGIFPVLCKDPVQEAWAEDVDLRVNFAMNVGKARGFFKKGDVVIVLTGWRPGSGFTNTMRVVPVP
Outline: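 Coupled luciferase luminescence (Kinase-Glo) detects ATP generated from 0.1 mM ADP and 0.5 mM PEP in imidazole buffer pH 7.2 with KCl, MgCl2; 1 h at room temperature. Enzyme at intermediate activity; normalized to uninhibited and no-enzyme controls.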
Also: nearly all actives have a fitted effect of over 60% in size.
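For activity change, negative = inhibition in this document: plate controls were uninhibited enzyme wells for no effect and no-enzyme wells for full effect.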
Potency is read from the fitted curve at half-maximal effect; tags tell the direction and shape of the fitted curve.

Structure (SMILES) | Potency | activity change, negative = inhibition
COc1nccnc1NS(=O)(=O)c1ccc(N=Cc2c(C)[nH]n(-c3ccc(C)c(C)c3)c2=O)cc1 | inconclusive [falling, partial curve] | 
COc1cc2cc(C)c(SCC(=O)N3CCN(C(=O)c4ccco4)CC3)nc2cc1OC |  | inactive: 90.6%
Cc1ccc(CNC(=O)CCC2CCCN(C(=O)c3ccc4c(c3)OCO4)C2)o1 (configuration not stated) |  | inactive: 54.8%
Cc1cc(NC(=O)c2cccc(F)c2)ncc1NC(=O)c1ccco1 | inconclusive [falling, partial curve] | 
NS(=O)(=O)c1c(Sc2ccccc2C(=O)O)ccc2ccccc12 |  | inactive: 4.21%
CSc1ccc(/C=N/NC(=O)c2ccc(O)cc2)cc1 | inconclusive [falling, single point] | 
O=C(/C=C/c1ccco1)Nc1ccccn1 | inconclusive [falling, single point] | 
COc1cccc(/C=N/Nc2nn3cnnc3c3ccccc23)c1 | inconclusive [falling, single point] | 
CC(C)(C)S(=O)(=O)/C(C#N)=N/Nc1ccc(Cl)cc1 | inconclusive [falling, single point] | 
Cc1cc(-c2nn(-c3ccccc3F)cc2CNCCc2cnc[nH]2)c(C)s1 |  | inactive: 50.2%
CCCc1nc(N2CCN(C)CC2)c2sc(=S)n(-c3ccccc3)c2n1 |  | inactive: 39.2%
Cc1occc1-c1nc(-c2ccccn2)no1 | inconclusive [falling, partial curve] | 
O=C(O)CSc1nnc2c(n1)[nH]c1ccccc12 | inconclusive [falling, single point] | 
N#CC1=C2SCN(c3ccccc3)CN2C(=O)CC1c1ccccc1Cl (configuration not stated) | inconclusive [falling, single point] | 
CCCC(=O)Nc1ccc(Cc2ccc(NC(=O)CCC)c(C(=O)O)c2)cc1C(=O)O | inconclusive [falling, single point] | 
Cc1cccc(C(=O)NC(=S)NNC(=O)c2cccs2)c1 | inconclusive [falling, single point] | 
CCn1c(=N)n(CC(O)c2ccccc2)c2ccccc21 (configuration not stated) | inconclusive [falling, single point] | 
Cc1ccccc1NC(=O)c1nc2nccc(C)n2n1 | inconclusive [falling, partial curve] | 
Cc1ccc(NC(=O)c2cc(N3C(=O)C=CC3=O)ccc2Cl)cc1C |  | inactive: 84.6%
CSC1=NS(=O)(=O)c2c(C)nn(C)c2S1 | inconclusive [falling, single point] | 
O=C(/C=C\Nc1ccc2c(c1)OCO2)c1cccs1 | inconclusive [falling, partial curve] | 
C=C(C)Cn1c(Sc2nc3ccccc3[nH]2)nc2c1c(=O)[nH]c(=O)n2C | inconclusive [falling, partial curve] | 
Cc1cc(NC(=O)c2ccccc2)ncc1NC(=O)c1ccco1 | inconclusive [falling, full curve] | 
Cc1cc(-c2ccccc2)nc(-c2ccccc2)c1C | inconclusive [falling, partial curve] | 

Structure (SMILES) | Potency | activity change, negative = inhibition
C=CCn1c(C)cc(C2=NNC(=NCC)SC2)c1C | inconclusive [falling, partial curve] | 
O=C(Nc1cc(NC(=O)c2ccccc2)c(C(=O)O)cc1C(=O)O)c1ccccc1 | inconclusive [falling, single point] | 
O=C(Nc1ccccn1)c1ccc2c(c1)OCCO2 | inconclusive [falling, partial curve] | 
O=C(O)c1ccc2nc3c(nc2c1)-c1ccccc1C3=O | inconclusive [falling, single point] | 
c1ccc2c(c1)Cc1cc3ccccc3nc1-2 | inconclusive [falling, partial curve] | 
Cc1ccc2[nH]c(=O)cc(C(=O)OC(C)C)c2c1 |  | inactive: 83.5%
CC1(C)CC(Nc2ccc(C(F)(F)F)cc2[N+](=O)[O-])CC(C)(C)N1 | inconclusive [falling, single point] | 
CSc1nncn1/N=C/c1ccc([N+](=O)[O-])cc1 | inconclusive [falling, single point] | 
O=C1NC(=S)S/C1=C/c1ccc(N2CCOCC2)o1 | inconclusive [falling, partial curve] | 
O=S(=O)(Nc1nc2ccccc2nc1N1CCc2ccccc2C1)c1ccc(Br)cc1 | inconclusive [falling, partial curve] | 
Cc1c(Cc2ccccc2)c(=O)oc2cc(OCC(=O)N[C@@H](Cc3ccccc3)C(=O)O)ccc12 | inconclusive [falling, full curve, poor fit] | 
Cc1cc(NC(=O)c2ccc(Br)o2)ccc1NC(=O)c1ccco1 | inconclusive [falling, partial curve] | 
O=C(/C=C/c1cccs1)Nc1scc(-c2ccccc2)c1C(=O)O | inconclusive [falling, single point] | 
CNC(=O)COc1ccc(S(=O)(=O)Nc2ccccc2)cc1 |  | inactive: 85.6%
O=C(Oc1ccc(OC(=O)c2ccco2)c(S(=O)(=O)c2ccc(Br)cc2)c1)c1ccco1 |  | inactive: 69.2%
CCOC(=O)c1c(-c2ccc(C)o2)csc1NC(=O)COC(=O)c1cccs1 |  | inactive: 66.2%
COc1ccc(C(=O)Nc2ccc3c(c2)OCCO3)cc1 | inconclusive [falling, partial curve] | 
N/C(=N\N=C\c1cccc(O)c1)c1nonc1N | inconclusive [falling, partial curve] | 
CS(=O)(=O)N1CCN(c2ccc([N+](=O)[O-])c(NCc3cccnc3)c2)CC1 |  | inactive: 86.8%
CCOC(=O)c1c(-c2ccccc2)csc1NC(=O)CSc1nnc(C)s1 |  | inactive: 59.6%
COc1ccc(Nc2n[nH]c(C)c2[N+](=O)[O-])cc1 | inconclusive [falling, single point] | 
N#Cc1cc2cc3c(cc2nc1NCCNC(=S)NCCCN1CCOCC1)OCO3 | inconclusive [falling, single point] | 
CC1CC(c2ccccc2)n2nc(NC(=O)c3cccs3)nc2N1 (configuration not stated) |  | inactive: 90.6%
O=C1/C(=C/c2cccs2)CCc2ccccc21 | inconclusive [falling, single point] | 

Structure (SMILES) | Potency | activity change, negative = inhibition
O=C(N/N=C/c1ccccc1OCC(=O)N1CCCC1)C(=O)Nc1ccccc1F | inconclusive [falling, partial curve] | 
COc1ccc2cc(C3CC(c4ccco4)=NN3C(=O)CCC(=O)O)c(Cl)nc2c1 (configuration not stated) |  | inactive: 39.1%
O=C(/C=C/c1cccs1)N1CCc2ccccc21 | inconclusive [falling, partial curve] | 
C=CCn1c(CC(C)(C)C)nc2ccccc21 | inconclusive [falling, single point] | 
Cn1cc(Br)c(C(=O)NN2C(=O)C3C(C2=O)C2C=CC3C23CC3)n1 (configuration not stated) | inconclusive [falling, single point] | 
CCCOc1ccc(-c2cn3ccccc3n2)cc1 | inconclusive [falling, single point] | 
CN(C)c1ccc(NC(=O)c2cnsn2)cc1 | inconclusive [falling, single point] | 
COC(=O)[C@@]1(Cc2ccc(F)cc2)[C@H]2c3cc(C(=O)N(C)C)n(Cc4ccc(C)o4)c3C[C@H]2CN1C(=O)c1ccccc1 |  | inactive: 65.4%
O=C(CSc1cccc[n+]1[O-])N1CCc2ccccc21 | inconclusive [falling, single point] | 
CN(C)c1ccc(/C=N/NC(=O)c2ccco2)cc1 | inconclusive [falling, partial curve] | 
COc1cccc(CNC(=O)N2CCN(S(=O)(=O)c3ccc(C)cc3)CC2)c1 |  | inactive: 88.2%
Cc1ccsc1/C=N/NC(=O)c1ccccn1 | inconclusive [falling, partial curve] | 
COc1ccccc1NS(=O)(=O)c1cccc(N2CC(O)=C(c3ccccc3)C2=N)c1 |  | inactive: 49.8%
Cc1cc(C)c(NC(=O)NC(=O)c2cccc(F)c2)c(C)n1 |  | inactive: 30.6%
Cc1noc(C)c1CSc1nnc2scc(-c3ccc(Cl)cc3)n12 | inconclusive [falling, partial curve] | 
Cc1ccc(-n2[nH]c(C)c(/C=N/c3cccc(C)n3)c2=O)cc1 | inconclusive [falling, single point] | 
O=C(O)/C=C/c1cn(Cc2ccccc2)nc1-c1ccc(Cl)cc1 | inconclusive [falling, single point] | 
Cc1ccc(-n2[nH]c(C)c(/C=N/c3ccccn3)c2=O)cc1 | active: 11.2 µM | 
CC1(C)CC(=O)C2=C(C1)O[C@@]1(c3ccsc3)Cc3cc(C#N)ccc3C2O1 |  | inactive: 40.2% [at 11.5 µM]
Cc1ccnc(SCc2cc(=O)c(OC(=O)c3ccc(S(=O)(=O)N(C)C)cc3)co2)n1 |  | inactive: 32.4%
c1ccc2[nH]c(-c3nc4ccccc4[nH]3)nc2c1 | inconclusive [falling, partial curve] | 
Cc1nn(C)c(Sc2ccccc2N)c1[N+](=O)[O-] |  | inactive: 91.9%
Cc1cccc(NC(=O)Nc2ccncc2)c1 | inconclusive [falling, single point] | 
CCN(c1ccccc1)S(=O)(=O)c1cccc(C(=O)N2CCN(S(=O)(=O)c3ccccc3)CC2)c1 | inconclusive [falling, partial curve] | 
